# Laboratory results: PubChem BioAssay AID493208 (National Center for Advancing Translational Sciences (NCATS), 2011)
# Screen size: about 44,000 compounds; about 340 (0.77%) were called active. Roughly 5% stayed inconclusive and do not appear here. Calls come from the whole dose curve; as a rule, active = well fitted inhibition curve with a large enough effect; inconclusive = small, poorly fitted or top-dose-only effect; inactive = flat fitted curve, though single readings scatter. The list shows a part of the results.
# Assay: Acumen qHTS Assay for Inhibitors of the mTORC1 Signaling Pathway in MEF (Tsc2-/-, p53-/-) Cells: Sytravon; note: nearly all actives have a fitted effect of over 50% in size;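 for activity change, negative = inhibition: plate controls were DMSO for no effect and rapamycin for full effect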
# Conditions: phospho-rpS6 immunofluorescence/PI, 24 h; series mostly up to 38.3 µM; activity change, negative = inhibition: at the top concentration
# Summary of the method: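 Compounds act on Tsc2-/-, p53-/- fibroblasts carrying an empty vector for 24 h before fixation and dual staining for phospho-S6 and DNA (propidium iodide). Values are percentages of cells above a rapamycin-defined pS6/PI threshold.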
# Potency is the fitted concentration of half-maximal effect.
SMILES,"activity change, negative = inhibition",Potency
Cc1cccc(NC(=O)CCc2c(C)nc3c(c(C)nn3C(C)(C)C)c2C)c1C,inactive: -4.02%,–
O=C1COc2ccc(-c3cc(-c4ccccc4)c4c(n3)-c3cc(Cl)ccc3OC4)cc2N1,inactive: 4.08%,–
CCN(C(=O)c1cn(CC)c(=O)c2cc(OC)c(OC)cc12)c1ccc(C)c(C)c1,inactive: -8.45%,–
CC1CCc2c(sc3nnn(CC(=O)Nc4ccc(Cl)cc4)c(=O)c23)C1 (stereo not drawn),inactive: -1.11%,–
Cc1ccc(N2CCN(S(=O)(=O)c3ccc4[nH]c5c(c4c3)CCCCC5)CC2)c(C)c1,inactive: -3.79%,–
O=C(Nc1cccc(F)c1F)C1CCN(c2ncccn2)CC1,inactive: 2.35%,–
COc1cccc(-n2nnc(-c3nc(-c4ccccc4F)no3)c2C)c1,inactive: -3.26%,–
O=C(Nc1ccc(F)cc1)N1CCN(C(=O)c2nsc3ccccc23)CC1,inactive: -0.689%,–
COC(=O)c1cc2occc2n1CC(=O)Nc1ccc(C(C)C)cc1,inactive: -4.13%,–
CCSc1nn(CC(=O)Nc2ccc(C(=O)OC)cc2)c(N)c1S(=O)(=O)c1ccc(C)cc1,inactive: -0.273%,–
CSc1cccc(NC(=O)Cn2ncn3c(cc4ccccc43)c2=O)c1,inactive: -1.56%,–
COC(=O)c1cc(NC(=O)c2ccc3c(c2)NC(=O)c2ccccc2S3)cc(C(=O)OC)c1,inactive: 1.45%,–
COc1ccc(-c2nc3c(c(SCC(=O)N4CCCCC4)n2)Cc2c(CO)cnc(C)c2O3)cc1,inactive: -0.448%,–
Cc1cccc(N2CCN(C(c3ccccc3)c3nnc(-c4ccccc4Cl)o3)CC2)c1C (stereo not drawn),inactive: -3.7%,–
Cn1nnc2c(N3CCN(c4cccc(C(F)(F)F)c4)CC3)ncnc21,inactive: -0.139%,–
CCOc1ccccc1NC(=O)C(c1ccccc1)N1Cc2ccccc2C1=O (stereo not drawn),inactive: -3.12%,–
Fc1ccccc1N1CCN(c2ncc3c(n2)CCN(Cc2cc(Br)cs2)C3)CC1,inactive: 12.1%,–
COc1ccc(OC)c(CNC(=O)CN2CC(C)Sc3ccccc32)c1 (stereo not drawn),inactive: -4.17%,–
Cc1cc(OCC(=O)NCC2(N3CCOCC3)CCCCC2)ccc1Cl,inactive: -26.4%,–
CCc1noc(-c2ccc(N3CCCCC3)c([N+](=O)[O-])c2)n1,inactive: -5.24%,–
CCc1cccc(NC(=O)C(CC(C)C)NS(=O)(=O)c2ccc3c(c2)oc(=O)n3C)c1 (stereo not drawn),inactive: 0.919%,–

SMILES,"activity change, negative = inhibition",Potency
CCC(=O)N1CCc2cc(CNC(=O)Nc3cc(Cl)ccc3C(=O)OC)ccc21,inactive: -6.95%,–
Brc1ccc2nc(-c3ccccc3)c(Nc3ccc4c(c3)OCO4)n2c1,inactive: 2.72%,–
O=C(Nc1cccc(Cl)c1)C1CCCN1S(=O)(=O)c1cccc2cccnc12 (stereo not drawn),inactive: -7.63%,–
Cn1nnnc1SCCNCc1ccc(OCc2ccc(Cl)cc2)cc1,inactive: -25.4%,–
COc1ccccc1-c1nnc(SCC(=O)c2ccc(F)cc2)n1-c1ccccc1,inactive: -15.3%,–
CCc1ccc(CNC(=O)CN2C(=O)CCn3nc(-c4cn(C)c5ccccc45)cc32)cc1,inactive: -15%,–
Cc1cc(Cl)ccc1OCc1cc(=O)n2c3c(sc2n1)CCCC3,inactive: 1.98%,–
Cc1ccc(CN2C(=O)c3ccccc3Sc3ccc(C(=O)NCCCN4CCOCC4)cc32)cc1,–,active: 11.7 µM
Cc1oc(-c2cccc(Cl)c2)nc1CN1CCC(C(=O)NCCc2ccc(Cl)cc2)CC1,inactive: -0.466%,–
COc1cccc(OCC(=O)Nc2nnc3n2CCS3)c1,inactive: 1.73%,–
CCc1ccc(C2=C(C)C(N3CCC(C(=O)NCCc4ccco4)CC3)=NS2(=O)=O)cc1,inactive: -6.52%,–
COc1ccc(C(=O)Nc2ccc(N3CCOCC3)c(C(F)(F)F)c2)cc1OC,inactive: -25.8%,–
Cc1cccc(NC(=O)CSc2nc(=O)n(Cc3cccnc3)c3c2CCC3)c1C,inactive: -7.43%,–
COc1ccccc1NC(=O)c1cc(S(=O)(=O)N2CCc3ccccc32)ccc1F,inactive: 8.77%,–
COc1ccc(NC(=O)c2cc3c(=O)n(Cc4cccnc4)ccc3nc2C)cc1Cl,inactive: -16.3%,–
C=Cc1ccc(Cn2c(=O)cc(C)c3c(C)nn(C)c32)cc1,inactive: -19.3%,–
Cc1cccc(N2CCN(c3c4c(nc5nncn35)CCC4)CC2)c1C,inactive: 1.07%,–
COc1cc(-c2nnc(SCC(=O)Oc3ccccc3Cl)o2)cc(OC)c1OC,inactive: -3.41%,–
O=c1c(N2CCc3ccccc3C2)csc2ccc(Br)cc12,inactive: 4.76%,–
COc1ccccc1NC(=O)c1cc(C2CC2)nc2c1c(C)nn2-c1ccc(C)cc1,inactive: 0.898%,–
CC(C)CCN(Cc1ccco1)C(=O)Cn1ncc2c([nH]c3ccccc32)c1=O,inactive: -0.711%,–

SMILES,"activity change, negative = inhibition",Potency
COc1ccccc1Cc1nc2ccccc2nc1SCC(=O)N1CCC(C)CC1,inactive: 0.634%,–
Cc1cccc(C(=O)Nc2ccc(N3CCN(c4ccc(F)cc4)CC3)c(C(=O)O)c2)c1,inactive: 0.322%,–
CCOC(=O)c1cc(-c2ccccc2)n(CCCC(=O)Nc2cc(C)ccc2OC)c1C,inactive: 8.31%,–
Cc1ccn2c(Nc3ccc4c(c3)OCCO4)c(-c3ccc(C)s3)nc2c1,inactive: -4.09%,–
Cc1ccc2nc(SCC(=O)Nc3ccc(C#N)cc3)[nH]c2c1,inactive: -1.19%,–
Cc1c(C(=O)N2CCC(C)CC2)c(S(=O)(=O)N2CCN(c3cccc(Cl)c3)CC2)c(C)n1C,inactive: 0%,–
COc1ccc(OC)c(NC(=O)CCc2nc(-c3ccc(C)cc3)no2)c1,inactive: -23.9%,–
COc1ccc(S(=O)(=O)c2cn(Cc3ccccc3)c3cc(F)c(F)cc3c2=O)cc1,inactive: 3.41%,–
CN1C(=O)c2[nH]nc(-c3ccc(F)cc3)c2C1c1ccccn1 (stereo not drawn),inactive: -2.71%,–
COc1ccc(Nc2cc(C(=O)NCc3ccccc3)c3ccccc3n2)cc1OC,inactive: 2.13%,–
O=c1c(S(=O)(=O)c2ccc(Cl)cc2)cn(Cc2ccc(F)cc2)c2ccc(F)cc12,inactive: -13.6%,–
CCOc1ccc(C(=O)NCc2ccc3c(c2)CCN3C(=O)c2ccc(C)cc2)cc1OCC,inactive: -0.553%,–
CCCCn1c(SCC(=O)Nc2ccc(F)cc2)nc2c(sc3ccccc32)c1=O,inactive: 2.23%,–
CC(C)c1ccc(NC(=O)Cn2nnc(C(=O)NCc3cccs3)c2N)cc1,inactive: -1.28%,–
Cc1ccc2oc3c(c(=O)c2c1)C(c1ccc(OCC(N)=O)cc1)N(Cc1ccc2c(c1)OCO2)C3=O (stereo not drawn),inactive: 5.79%,–
CNC(=O)CSc1nnc(NC(=O)Nc2ccccc2)s1,inactive: -4%,–
CCOc1ccccc1N(CC(=O)Nc1ccc(OC)c(Cl)c1)S(=O)(=O)c1ccccc1,inactive: -2.67%,–
O=C(CSc1nnc(-c2ccc(Br)cc2)n1-c1ccccc1)c1ccccc1,inactive: 2.24%,–
COc1ccc(NC(=O)C(=O)NCC2(c3ccccc3)CCCC2)c(OC)c1,inactive: 4.31%,–
COc1ccc(C(=O)NCC(c2ccc3c(c2)OCO3)N2CCN(c3ccc(F)cc3)CC2)cc1 (stereo not drawn),inactive: 0.739%,–
Cc1ccc(N(CC(C)C)S(=O)(=O)c2nnc(NC(=O)c3cccs3)s2)cc1,inactive: 6.41%,–
